Results as given in PMC12136788.
The other results are listed elsewhere or left out.

B1: chr3:128532203:128532204:+_ENSG00000075785_ENST00000265062|hu_hu|FALSE|FALSE (ssRNA)
RNA: GGGAGUUCUACAGUCCGACGAUCACUGCAGCUUUCUGCCGAGGCCUUGGCCCGGUCAUUCUUGUCCAGUUUGAUAGGUUCAGGAAAUUCGUUGUACAGCUCCACCUCCGUUUCCUGCUUAAGUGCAUUCCGUGCAAUCGUCUGCAACAGAGGAUUGAGCAUCA
B2: chr13:115007635:115007636:+_ENSG00000130177_ENST00000356221|hu_hu|FALSE|FALSE (ssRNA)
RNA: GGGAGUUCUACAGUCCGACGAUCAAGCUUCAAAGCUUCUUUGUAGCUGUAGGUAGCCAGGGUUCGGUUAUCUAGAGCAUCAUAGAUUUUCCCGCGUAGAAGACAGAUAGAACUCUUUAUUGAAGACUGUGACAUUUCCCAGUCCAACAGAGGAUUGAGCAUCA
B3: chr14:14948730:14948731:-_ENSMUSG00000021737_ENSMUST00000022256|mus_hu|FALSE|FALSE (ssRNA)
RNA: GGGAGUUCUACAGUCCGACGAUCGAAAACAGAGUAACGGCAUUCAUAGAGUGAAAACAGAUACUGCCGAACUGCUGGAAGACUGUGCAACACUUCAAGAAUCUCUGCUCCUUUAAUGACCUUUUCCCUGAGAUCUGGUCUUUCCAACAGAGGAUUGAGCAUCA
B4: chr4:86222399:86222400:+_ENSMUSG00000070934_ENSMUST00000091064|mus_mus|FALSE|FALSE (ssRNA)
RNA: GGGAGUUCUACAGUCCGACGAUCGAACGUAGCUCUCUCGAACAGCAGAACUUCAUCAGCCUCAAUAAUCUGGGCAAAAUUCCUUAGGUUCAUCUCCAGCUGCUGAACGUUGGGGAUCAGCUGAUAGACGAUGCUGGACCAGGCCAACAGAGGAUUGAGCAUCA
B5: 30675574_30675694_3369_CDS_ENSG00000137337_ENST00000376406|human|control|control (ssRNA)
RNA: GGGAGUUCUACAGUCCGACGAUCCUCUCUGUUUGCUACUGGUCUCUCUACUUCUCUCUCAAAUGCUUUGCUUGGAAGGGUCUGCUUCUGUACUUGUUUCUCUUGUAUUUCCUCAGAUGUCUCAAUUUCUACCUUCAAACUCUCCAACAGAGGAUUGAGCAUCA
B6: chr14:89338683:89338684:+_ENSG00000165533_ENST00000346301|hu_hu|hu_hu_hu_mus_False|38_68 (ssRNA)
RNA: GGGAGUUCUACAGUCCGACGAUCGUGGUUGUUGUGGACCAGGGCCAGCCUGAAGCAUUGGUGGGCCAAAUUUGUAUCUCCGAUUCCCACAGCUAUGUGUCCCAAGUUGUACCAGACAUCAGCUGCCUCUUCUUCAUUUUCAGCCAACAGAGGAUUGAGCAUCA
B7: chr5:135496556:135496557:+_ENSG00000113658_ENST00000545279|hu_mus|motif|central (ssRNA)
RNA: GGGAGUUCUACAGUCCGACGAUCGUUCCUGAACUGAACCAGAAGGCUGUGUUGUGGAUUGAAUUCAUUGUGACGAGGCACGGAUACUGGAGGUAAGACUGGACUCUCCACUCUCUUAUAGUGGUAUGGAUUGAUACAAACUUCCAACAGAGGAUUGAGCAUCA
B8: chr19:16212804:16212805:+_ENSG00000167460_ENST00000300933|hu_mus|hu_hu_hu_mus_False|18_38 (ssRNA)
RNA: GGGAGUUCUACAGUCCGACGAUCAACAAUUCUGGAGUGAAGGAAAGAUGUAACAUGGAACAGCAUUAAAGCUCAGUCAGAAGGCACAUGGGCAACAAUGACUAUUUCAGCAUUCUCCUACGUUGACCUUAAAGACAAUCUGUUCAACAGAGGAUUGAGCAUCA
B9: chr2:207024631:207024632:+_ENSG00000114942_ENST00000392222|hu_hu|FALSE|FALSE (ssRNA)
RNA: GGGAGUUCUACAGUCCGACGAUCCGAGAGCUGGGGAGCAGCAGAAAGAGAGCGCGCAAAUUGUGGGCGCCCCACGCUGAAGAGAGGAAAAAGGACCCGAAGAGACCGGAAAAUUCCUUAUAUAGAGACGGAGGCGUUUCCCUCCAACAGAGGAUUGAGCAUCA
B10: chr7:65705844:65705845:+_ENSG00000169902_ENST00000304842|hu_mus|hu_hu_hu_mus_False|1_108 (ssRNA)
RNA: GGGAGUUCUACAGUCCGACGAUCAAAAGGAUCUUUAUUACAUAAAUAAGGUGCCGGCUCCCCAUGUUUAACAAUGACCUCCAGAAGGAAGGCUUGCAUGGCAGAAUCUAGCACUUCAUCUGUGACACCCGCCUCAUCCAGGCGCAACAGAGGAUUGAGCAUCA
B11: chr6:150114721:150114722:+_ENSG00000120265_ENST00000367380|hu_hu|FALSE|FALSE (ssRNA)
RNA: GGGAGUUCUACAGUCCGACGAUCGUCCUUCCUGACAUUAUUUACUGAGUCAUCUACUAGCUCUUUAAUGUGAUCAAUUCCUAUGACUUUUCCAGUACAUCCAACCAUACGUGCAAAACAUGCAGUAAGGAUUCCACUUCCAGACAACAGAGGAUUGAGCAUCA
B12: chr10:33214929:33214930:-_ENSG00000150093_ENST00000302278|hu_hu|hu_hu_hu_mus_True|8_108 (ssRNA)
RNA: GGGAGUUCUACAGUCCGACGAUCAACAAGUUCAUUAAAAAACUCUCCUCUGUCAGUAAGACUAAGCACAUUUUUGUAGCUAAAUGGGCUGGUGCAGUUUUGUUCACUUGUACAAGGAUUUCUUAGCUUAGCUGGUGUUGUGCUCAACAGAGGAUUGAGCAUCA
B13: chr7:65705475:65705476:+_ENSG00000169902_ENST00000304842|hu_hu|hu_hu_hu_mus_True|18_38 (ssRNA)
RNA: GGGAGUUCUACAGUCCGACGAUCUCUAUUCGGUGAUGGCACUCCAUGGCAUGCUGGCCCAGGUAAAACACGGUCACAGAACUAAUCACCAGACACGCCAAUAGUAAGUUCUGCUUCAGCUUUCCAACCAUCUUGAUGUGGUUACAACAGAGGAUUGAGCAUCA
B14: chr1:244855233:244855234:+_ENSG00000121644_ENST00000302550|hu_mus|hu_hu_hu_mus_True|88_88 (ssRNA)
RNA: GGGAGUUCUACAGUCCGACGAUCCAUCAGAUGGUAGGCGUUGCCCUUGUAUUCUUUCCCCAGUUCUUCUACAAUUUUCUCUAUAUCAUCUUCUAGAAAGUCCGUACUUCCUAGAACAACAGCUUCUUUAAAUUUAAAUGUUUCCAACAGAGGAUUGAGCAUCA
B15: 37086491_37088370_348_CDS_ENSMUSG00000036398_ENSMUST00000040402|mouse|control|control (ssRNA)
RNA: GGGAGUUCUACAGUCCGACGAUCACAGCAGCAUUUCGACGAGCGUCGCCCCAUAUGCUCAUUGUCCACAGUGUCACUGGACCACUCCACCUUCUUCUCUGGCUUGCGUUUCCGAAGUUUCAUAGUUAGGCUCUGAUUCUCUGGCAACAGAGGAUUGAGCAUCA
B16: chr9:14812383:14812384:-_ENSMUSG00000031934_ENSMUST00000164273|mus_mus|mus_mus_mus_hu_True|68_68 (ssRNA)
RNA: GGGAGUUCUACAGUCCGACGAUCAUAGCCCAGGUAGAUACACGCUAACAGUAUAAUGAUGAGUGUCACCAGCCGGCAGCUAAUGUACUUGAUGAUUAAAUUAUUAGAAUUUUUCUUUGUCUUCAAGUACUGCUCCACAAUUGGCAACAGAGGAUUGAGCAUCA
B17: 2700817_2703710_1946_CDS_ENSG00000101596_ENST00000320876|human|control|control (ssRNA)
RNA: GGGAGUUCUACAGUCCGACGAUCGUCAAUUUUCAUUCGCUGUUCCUGUCCAUUUAAAAUCCUUGUAAAAAGGGUGUUCUUAUCUUUCAAUUUUAGCUCAAGAUCCAUAAACGUCAAUUUAUUUGUGCUGACCUGGAAUUUGUCCAACAGAGGAUUGAGCAUCA
B18: chr6:149979360:149979361:-_ENSG00000131023_ENST00000543571|hu_hu|FALSE|FALSE (ssRNA)
RNA: GGGAGUUCUACAGUCCGACGAUCAAAUGAUUGGGAAAAUACAAAUAAGUUCAUUAAAAACACAGGCUGAUUAUUCAUAUCUAUUACAUUCAGAAUUAUGCGAAACAAUUAGUUAUAUUGCAAAGCUGUAAUUCUUUUUCUAACCAACAGAGGAUUGAGCAUCA
B19: chr17:61910164:61910165:-_ENSG00000108604_ENST00000448276|hu_hu|motif|central (ssRNA)
RNA: GGGAGUUCUACAGUCCGACGAUCAAGUAUAAGGCUUUGGGGACCAAGCAACAAGGAAUCCUAUCACUACAUUUAUAAGACGGAAGCUGGAGAGUAGAGGGUGACAGCAGACACUCCUCACCCCAGCCUACGUGUCUGCGGCCCCAACAGAGGAUUGAGCAUCA
B20: chr22:19452774:19452775:-_ENSG00000070010_ENST00000399523|hu_hu|hu_hu_hu_mus_False|18_68 (ssRNA)
RNA: GGGAGUUCUACAGUCCGACGAUCCUUCUCAUUGUAGUUGAUAGCAAUCACAUCUCCAGUCGUCAGACAGGCAAAGUUUCUCAAUGCAUUUUCUAAUACCGCUUUAGGGUUGGUAAUGUCCAGGAAGUCUGGGCUCUGAGGCUGCAACAGAGGAUUGAGCAUCA
B21: chr8:11181129:11181130:+_ENSG00000104643_ENST00000221086|hu_hu|FALSE|FALSE (ssRNA)
RNA: GGGAGUUCUACAGUCCGACGAUCCAGUGCAUCUCUGGUUUAAGAAAACCUAUUUGUAGCUUGAUUAUAAUAAAUUAACUCUAUUCUAGAUGAUGGUUUAAUUUUACAAGCAGCAUUUGAAACACAUUGUAUAUGUAUGCUCAACAACAGAGGAUUGAGCAUCA
B22: chr6:44221449:44221450:+_ENSG00000096384_ENST00000371646|hu_mus|FALSE|FALSE (ssRNA)
RNA: GGGAGUUCUACAGUCCGACGAUCAACCCUGCUAUUCUGUGGGAGGGGAUCUUCCUGCCUUAAGGCACAGGACAGGAUAGAAGAUUCUUGUAGACAUGAGCAGAGAGCCAGGUGGGUCAGGGCUGCUGGGGGAGCCACGGGGAUCAACAGAGGAUUGAGCAUCA

The binders below were run against T1, UNK ZnF1-3 (human, UniProt Q9C0B0 31-174) (assay: nsRBNS (natural sequence RNA bind-n-seq); RBNS binding buffer (assumed for nsRBNS): 25 mM Tris pH 7.5, 150 mM KCl, 3 mM MgCl2, 0.01% Triton X-100, 500 ug/ml BSA, 20 U/ml SUPERase-In, 4 C; UNK is unkempt and MSI1 is Musashi-1; names of the RNAs are library labels; protein concentration not given here; high values mean tight binding).
T1 sequence: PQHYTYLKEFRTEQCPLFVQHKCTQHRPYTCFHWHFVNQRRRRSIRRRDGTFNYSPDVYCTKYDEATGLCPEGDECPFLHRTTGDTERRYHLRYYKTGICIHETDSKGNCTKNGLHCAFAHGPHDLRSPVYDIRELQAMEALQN

In order of rising binding signal:
1. B10  0.398 enrichment R
2. B5  0.433 enrichment R
3. B1  0.543 enrichment R
4. B13  0.639 enrichment R
5. B18  0.706 enrichment R
6. B15  0.729 enrichment R
7. B21  0.743 enrichment R
8. B6  0.86 enrichment R
9. B20  0.865 enrichment R
10. B19  0.88 enrichment R
11. B17  0.909 enrichment R
12. B11  1.07 enrichment R
13. B2  1.08 enrichment R
14. B12  1.1 enrichment R
15. B8  1.16 enrichment R
16. B7  1.21 enrichment R
17. B4  1.24 enrichment R
18. B14  1.25 enrichment R
19. B16  1.36 enrichment R
20. B9  1.49 enrichment R
21. B22  1.94 enrichment R
22. B3  1.97 enrichment R
